Measured values reported in patent publication US9555344.
Not every entry of the source has a single result; some have several. The list is limited to them. The source may hold further records. Values that stand side by side seem to repeat one measurement; one of them may be the mean.

Experiments:
[1] = target: Concanavalin A (UniProt P02866); assay: Con A Sepharose affinity chromatography, 100 mg rHA loaded; albumin monomer in eluate by GP-HPLC as percent of load; sample SP-FF2 flow through & washings
[2] = target: Concanavalin A (UniProt P02866); assay: Con A Sepharose affinity chromatography, 100 mg rHA loaded; albumin monomer in eluate by GP-HPLC as percent of load; sample final product

recombinant human albumin (rHA) from a pmt1 mutant Saccharomyces cerevisiae, purified by the process of Example 1 (from UniProt P02768 25-609)
ConA-binding rHA (% of load) [1]: 0.1, 0.12, 0.14, 0.09 % of load [columns of one line]
ConA-binding rHA (% of load) [2]: 0.1, 0.11, 0.12, 0.07 % of load [columns of one line]
